# Measurements reported in the antibiotic and cytotoxicity screens of Wong et al. (2023).
# The list shows a part of the results.
# System: HepG2
# Experiment: cytotoxicity call (relative viability < 0.9)
# Conditions: 10 µM
row,Compound,cytotoxicity call
1,COc1cccc(NC(=O)N(C)C[C@@H]2Oc3cc(C#Cc4ccncc4)ccc3S(=O)(=O)N([C@@H](C)CO)C[C@@H]2C)c1,active
2,O=C(CCCCCNC(=O)OCc1ccc(CO[C@H]2C[C@@H](c3ccc(Br)cc3)C=C(C(=O)N3CCN(Cc4ccc5c(c4)OCO5)CC3)O2)cc1)NO,inactive
3,Cc1noc(C)c1NC(=O)N(C)C[C@@H]1Oc2ccc(NC(=O)CCN3CCOCC3)cc2CC(=O)N([C@H](C)CO)C[C@@H]1C,inactive
4,NCc1cccc(N2CCCC2)c1,inactive
5,COc1ccccc1CNC(=O)C[C@H]1C[C@@H]2c3cc(NS(=O)(=O)c4ccc(F)cc4)ccc3O[C@@H]2[C@H](CO)O1,inactive
6,CC(C)NC(=O)N(C)C[C@H]1Oc2c(NS(=O)(=O)c3cn(C)cn3)cccc2C(=O)N([C@@H](C)CO)C[C@H]1C,inactive
7,Cc1ccc(S(=O)(=O)N(C)C[C@H]2OCCCC[C@@H](C)Oc3ccc(NC(=O)Nc4ccc5c(c4)OCO5)cc3C(=O)N([C@@H](C)CO)C[C@@H]2C)cc1,inactive
8,C[C@@H]1CN([C@H](C)CO)C(=O)c2cc(NS(=O)(=O)c3cn(C)cn3)ccc2O[C@@H]1CN(C)Cc1ccc2c(c1)OCO2,inactive
9,COC(=O)C1(C)CCCC2(C)c3ccc(O)c(C(C)C)c3CCC12 (stereo not given),active
10,C[C@H](CO)N1C[C@H](C)[C@@H](CN(C)S(=O)(=O)c2ccccc2F)Oc2cc(C#Cc3cccc(F)c3)ccc2S1(=O)=O,inactive
11,CC1CCC2(OC1)OC1CC3C4CCC5CC(O)CCC5(C)C4CCC3(C)C1C2C (stereo not given),inactive
12,CCS(=O)(=O)Nc1ccc2c(c1)C(=O)N(C)[C@H]1CC[C@@H](CC(=O)NCc3ccccc3F)O[C@H]1CO2,inactive
13,CC(=O)N1CCC(C(=O)N2CCC(n3cc(C(C)(C)N)nn3)CC2)CC1,inactive
14,COc1ccc(NC(=O)N(C)C[C@@H]2OCCCC[C@@H](C)Oc3ccc(NC(=O)C4CCCCC4)cc3C(=O)N([C@@H](C)CO)C[C@H]2C)cc1,inactive
15,Cc1ccc(S[C@]2(C(=O)NC(C)C)CC(=O)N(Cc3cc(C(F)(F)F)cc(C(F)(F)F)c3)[C@@H]2c2ccc(CO)cc2)cc1,inactive
16,O=C(C[C@@H]1C[C@H]2c3cc(NS(=O)(=O)c4ccc(F)cc4)ccc3O[C@H]2[C@@H](CO)O1)NCc1ccccn1,inactive
17,CSc1ccc2cc(CN(C[C@H]3CCCO3)C(=O)c3ccco3)c(N(C)Cc3csc(C)n3)nc2c1,inactive
18,Cc1ccc(NC(=O)C[C@@H](N)C(=O)O)cc1,inactive
19,Cc1noc(C)c1NC(=O)N(C)C[C@H]1Oc2c(NC(=O)c3ccc(-c4nccs4)cc3)cccc2C(=O)N([C@@H](C)CO)C[C@@H]1C,inactive
20,CCCCCC(=O)Cc1cc(O)cc(O)c1C(=O)Oc1cc(CC(=O)CCCCC)c(C(=O)O)c(OC)c1,inactive

row,Compound,cytotoxicity call
1,COc1ccc(CCNC(=O)Nc2nn(Cc3ccc(COc4cccc(OC)c4)cc3)c3ccccc23)cc1,inactive
2,C[C@H](CO)N1C[C@H](C)[C@H](CN(C)C(=O)NC2CCCCC2)OCc2ccccc2-c2c(n(C)c3ccccc23)C1=O,active
3,C[C@H](CO)N1C[C@H](C)[C@@H](CN(C)S(=O)(=O)c2ccc(F)cc2)Oc2ccc(NC(=O)CCCN(C)C)cc2C1=O,inactive
4,CC(C)NC(=O)Nc1ccc2c(c1)C(=O)N([C@@H](C)CO)C[C@H](C)[C@H](CN(C)Cc1ccc(C(=O)O)cc1)O2,inactive
5,C[C@H]1CN([C@@H](C)CO)C(=O)c2cc(NC(=O)CCN3CCOCC3)ccc2O[C@@H]1CN(C)Cc1ccc(C(=O)O)cc1,inactive
6,CN(C)CCCNC(=O)C[C@@H]1CC[C@H]2[C@H](COc3ccc(NC(=O)c4ccc5c(c4)OCO5)cc3C(=O)N2C)O1,inactive
7,C[C@@H]1CCCCO[C@@H](CN(C)Cc2ccc3c(c2)OCO3)[C@@H](C)CN([C@H](C)CO)C(=O)c2cc(NC(=O)Nc3ccc(C(F)(F)F)cc3)ccc2O1,active
8,O=C(C[C@H]1CC[C@@H]2[C@H](COC[C@@H](O)CN2S(=O)(=O)c2ccc(Cl)cc2)O1)NCc1ccncn1,inactive
9,COCC(=O)N1C[C@H](C)[C@H](OC)CN(C)C(=O)c2ccc(NC(=O)Nc3ccccc3)cc2OC[C@@H]1C,inactive
10,CC(C)=CCC/C(C)=C/CC1=C(C)C(=O)c2ccccc2C1=O,inactive
11,C[C@@H]1CN([C@@H](C)CO)C(=O)c2cc(C3=CCCC3)cnc2O[C@@H]1CN(C)C(=O)c1ccc2c(c1)OCO2,inactive
12,C[C@@H]1CN([C@@H](C)CO)C(=O)CCCn2cc(nn2)CO[C@H]1CN(C)C(=O)Nc1ccc2c(c1)OCCO2,inactive
13,C[C@@H]1CN([C@@H](C)CO)S(=O)(=O)c2ccc(C#C[C@@H](C)O)cc2O[C@@H]1CN(C)C(=O)c1ccncc1,inactive
14,COc1ccc(NC(=O)Nc2ccc3c(c2)C(=O)N([C@@H](C)CO)C[C@@H](C)[C@H](CN(C)C(=O)Nc2cccc4ccccc24)OCCCC[C@H](C)O3)cc1,inactive
15,CN1C(=O)c2cc(NC(=O)C3CCOCC3)ccc2OC[C@@H]2O[C@@H](CC(=O)NCc3ccc4c(c3)OCO4)CC[C@@H]21,inactive
16,C[C@@H]1CN([C@@H](C)CO)C(=O)c2cc(NC(=O)CCC(F)(F)F)ccc2O[C@H]1CN(C)C(=O)Nc1cccc2ccccc12,inactive
17,COCC(=O)Nc1ccc2c(c1)C(=O)N(C)C[C@@H](OC)[C@@H](C)CN(Cc1ccccc1OC)[C@@H](C)CO2,inactive
18,Cc1cc(C)c2[nH]c3ccccc3c2n1,active
19,C[C@@H]1CCCCO[C@H](CN(C)C(=O)NC2CCCCC2)[C@@H](C)CN([C@@H](C)CO)C(=O)c2cc(NC(=O)c3ccccc3)ccc2O1,inactive
20,C[C@@H]1CN([C@@H](C)CO)C(=O)CCCn2nncc2CO[C@@H]1CN(C)S(C)(=O)=O,inactive
